From the RNAGym collection of RNA variant scans (doi:10.1093/nar/gkz1192) come the findings set out here.

Read counts are not given, so values of variants with three or more changes are uncertain.

B1: CPEB3 Ribozyme (parent)
chain: UAACAGGGGGCCACAGCAGAAGCGUUCACGUCGCAGCCCCUGUCAGAUUCUGGUGAAUCUGCGAAUUCUGCUGUAUAUCUC

The variants in the data set derive from B1. Kind of data set: self-cleavage, relative activity (ratio to wild type); higher = more cleavage; in vitro, sequencing. The essentials:
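Libraries of CPEB3 self-cleaving ribozyme mutants came from rounds of error-prone PCR and carried barcodes, which DNA sequencing matched to variants. In vitro transcription used T7 RNA polymerase at 37°C for 5 hours, with a further 15 min in DNase I before EDTA stopped the reaction; the ribozymes cleaved during both steps. The RNA was reverse transcribed with template switching and sequenced on Illumina. Relative activity is the cleaved/total read fraction of a variant divided by that of the unmutated ribozyme, averaged over three batches with at least 5 reads.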
As for UAUCAGGGGGCCGCAGCAGAAGCGUUCCCGUCGCAGCCCCUGUCAGAUUCUGGCGAAUCUGCGAACUCUGCUGUAUAUCUC, the self-cleavage stood at 0.21.

As to UAGCAGGGGGCCACAGCAGAAGCGUUCACGUCGCAGCCCCUGUCAGAUUCUGGUGAAUCUGCGAAUCCUGCUGUAUAUCCC, the self-cleavage was 0.52.

As to UAUCAGGGGGCCUCAGCAGAAGCGUUCACGUCGCAGCCCCUGUCAGAUUCUGGUGAAACUGCGAAUUCUGCCGUAUAUCUC, the self-cleavage stood at 0.46. In the case of UAUCAGGGGGCCACUGCAGAAGCGUUCACUUCGCAGCCCCUGUCUGAUUCUGGUGAAUCUGCGAAUUCUGCUGUAUACCUC it was 0.22; in that of UAUCGGGGGGCCACAGCAGAAGCCUUCACGUCGCAGCCCCUGUCAGAUUCUGGUGAAUCUGCGAAUUCCGCUGUAUAUACC, 0.14; in that of UAGCAGGGGGCCACAGCAGAAGCGUUCACGUCGCAGCCCCUGUCAGAUUCUGGCGGAUCUGCGAAUUCUGCUUUAUAUCUC, 1.24. To UAUCGGUGGGCCACAGCGGAAGCGUUCUCGUCGCAGCCCCUGUUAGAUUCUGGUGAAUCUGCGAAUUCUGCUGUAUAUCUC belongs 0.27; to UAGCAGGGGGCCACAGCAGAAGCGUUCACGUCGCAGCCCCUGUCAGAUUCUGGUGAAUCUGCGAAUUCCGCUGUAUAUAUC, 0.8; to UAUCGGGGGGCCACAGCAGAAGCGUUCACGUCGCAGCCCCUGUCAGAUUCUGGUGAGUCUGCGAAUUCCGCUGUAUAUCUC, 0.1. To UAGCAGGGGGCCACAGCAGAAGCGUUCACGUCGCAGCCCCUGUCAGAUACAGGUGAUUCUGCGAAUUCUGCUGUAUAUCUC belongs 0.12; to UAGCAGGGGGCCACAGCAGAAGCGUUCACGUCGCAGCCCCUGUCAGAUGCUGGUGAGUCUGCGGGUUCUGCUGUAUAUCUC, 0.2. Regarding UAUCGGGGGGCCACAGCAGAAGCGUUCACGUCACAGCCCCUAUCAGAUUCUGGUGAAUCUGCGAAUUCUGCUGUAUAUCUC, the self-cleavage amounted to 0.39. To UAUCAGGGGGCCACGGCAGGAGCGUUCACGUCGCAGCCCCUGUCAGAUUCUGGUGAAUCCGCGAAUUCUGCUGUAUAUCUC belongs 0.25; to UAUCGGGGGGCCACAGCAGAAGCGUUCACGUCGCAGCCCCUGUCAGAUUCUGGUGAAUCUGCGAAUUCUGCUGCAUAUCUC, 0.98; to UAGCAGGGGGCCACAGCAGAAGCGUUCACGUCGCAGCCCCUGUCAGAUUCUGGUGAAACUGCGAAUUCCGCUGUAUAUCUC, 0.21. In the case of UAUCGGGGGGCCACAGUAGAAGCGUUCACGUCGCAGCCCCUGUCAGAUUCUGGUGAAUCUGCGAAUUCUGCUGUAUAUCUC it was 0.68; in that of UAUCAGGGGGCCUCAGCAGAAGCGUUCACGUCGCAGCCCCAGUCAGAUUCUGGUGAAUCUGCGAAUUCUGCUGUAUACCUC, 0.11; in that of UAUCAGGGGGCCGCGGCAGAAGCGUUCACGUCGCAGCCCCUGUCAGAUUCUGGUGAGUCUGCGAAUUCUGCUGUACAUCUC, 0.36.

UAUCAGGGGGCCACUGCGGAAGCGUUCACGUCGCAGCCCCUGUCAGAUUCUGGUGUAUCUGCGAAUUCUGCUGUAUAUCUC: the self-cleavage is 0.2. To UAUCAGGGGGCCUCAGCAGAAGCGUACACGUCGCAGCCCCUGUCGGAUUCUGGUGAGUCUGCGAAUUCUGCUGUAUAUCUC belongs 0.9. With UAUCAGGGGGCCACCGCAGAAGCGUUCGCGUCGCAGCCCCCGUCAGAUUCUGGUGAAUCUGCGAUUUCAGCUGUAUAUCCC, the self-cleavage came out at 0.19. To UAUCAGGGGGCCGCAGCAGAAGCGUUCACGUCGCAGCCCCUGUCAGAUUCUGGUGAAACUGCGAAUUCUGCUGUAUACCUC belongs 0.46; to UAGCAGGGGGCCACAGCAGAAGCGUUCACGUCGCAGCCCCUGUCAGAUUCAGGUGAAUCUGCGAAAUCUGCUGUAUAUCCC, 0.28. Regarding UAUCAGGGGGCCCCACCAGGAGCGUUCACGUCGCAGCCCCUGUCGGAUCCUGGUGAAUCUGCGAAUUCUGCUGUAUAUCUC, the self-cleavage was determined as 0. For the variant UAUCAGGGGGCCUCAGCAGGAGCGCUCACGUCGCAGCCCCUGUCAGAUUCUGGUGAAUCUGCGAAUUCUGCUGUAUAUCUC, the self-cleavage was 0.1. To UAUCUGGGGGACACAGCAGAAGCGUUCACGUCGCAGCCCCCGUCAGGUUCUGGUGAAUCUGCGAAUUCUGCUGUAUAUCUC belongs 0.36; to UAUCCGGGGGCCACAGCAGAAGCCUCCACGUCGCAGCCCCUGUCGGAUUCUGGUGAAUCUGCGAACUCUGCUGUAUAUCUC, 0.07; to UAGCAGGGGGCCACAGCAGAAGCGUUCACGUCGCAGCCCCUGUCAGAUUCCGGUGAGUCUGCGAAUUCUGCUAUAUAUCUC, 1.25. In the case of UAGCAGGGGGCCACAGCAGAAGCGUUCACGUCGCAGCCCCUGUCAGAUUCAGGUGAAUCCGCGAAUUCUGCUGUAUAUCUC it was 0.68; in that of UAUCGGGGGGCCACAGCAGAAGCGUCCACGUCGCAGCCCCUGUCAGAUUCUGGUGAAUCUGCGAAUUCUGCUAUAUAACUC, 0.42. With UAGCAGGGGGCCACAGCAGAAGCGUUCACGUCGCAGCCCCUGUCAGAUUCUGGCGAAUCUGCGAAUCCUGCUGUAUAUCUC, the self-cleavage was 0.32. To UAGCAGGGGGCCACAGCAGAAGCGUUCACGUCGCAGCCCCUGUCAGAUUCUGGCGAAUCCGCGAAUUCUGCUGUAUAUCCC belongs 0.56; to UAUCAGGGGGCCACUGCAGAAGCGUUCACGUCGCAGCCCCUGUCAGAUUCUGGUGAAUCUGCAAAUUCUGCUGUACAUCCC, 1.16; to UAUCGGGGGGCCACAGCAGAAGCGUCCACGUCGCAGCCCCUGUCAGAUUCUGGUGGAUCUGCGAAUUCUGCUGUAUAUCUC, 0.41. To UAUCAGGGGGCCUCAGCAGAAGCGUUCACGUCGCAGCCCCUGUCAGAUUCUGGUGAGUCUGCGAAUUCUGCUGUAUAUUUC belongs 1.22; to UAGCAGGGGGCCACAGCAGAAGCGUUCACGUCGCAGCCCCUGUCAGAUUCAGGCGAAUCAGCGUAUUCUGCUGUAUAUCUC, 0.33; to UAUCAGGGGGCCGCCGCGGAGGUGUUCACGUCGCAGCCCCUGUCGGAUUCUGGUGAAUCUGCGAAUUCUGCUGUAUAUCUC, 0.17. As for UAUCAGGGGGCCACGGCAGAAGCGUUCACGUCGCAGCCCCUGUCAGAUUCUGGUGAAUCUGCGAAUUCUGCUGUAUGUCUC, the self-cleavage stood at 0.86. As for UAGCAGGGGGCCACAGCAGAAGCGUUCACGUCGCAGCCCCUGUCAGAUUCUGGUGAAUCUGCGAAUUCGGCUGUAUUUCUC, the self-cleavage amounted to 0.59. In the case of UAUCAGGGGGCCACCGCAGAAGCGUUCACGUCGCAGCCCCUGUCAGAUUCUGGUGAAUCUGCGAAUUCCGCUGUAUAUCUC it was 0.68; in that of UAGCAGGGGGCCACAGCAGAAGCGUUCACGUCGCAGCCCCUGUCAGAUUCCGGUGAAUCUGCGGGUUCUGCUGUAUACCUC, 0.19; in that of UAUCGGGGGGCCACAGCAGAAGCGUUCACGUCGCAGCCCCUGUCAGAUUCUGGUGAAUCUGCGAAUUCUGCUGUAUAUUUC, 0.97. To UAGCAGGGGGCCACAGCAGAAGCGUUCACGUCGCAGCCCCUGUCAGACUCUGGUGAAUCUGCGAAUUCUGCCGUAUAUCUC belongs 0.89; to UAGCAGGGGGCCACAGCAGAAGCGUUCACGUCGCAGCCCCUGUCAGAUUCAGGUGAUUCUGCGAAUUCUGCUGUAUAUCUC, 0.38. In the case of UAUCAGGGGGCCGCAGCAGAAGCGUUCACGUCGCAGCCCCUGUGAGAUUCUGGUGAAUCUGCGCAUACUGCUGAAUGUCUC it was 0.02; in that of UAUCAGGGGGCCACAGCCGAAGCGUUCACGUCGCAGCCCCUGUCAGAUUCUGGUGAAUCAGCGAAUUCUGCUGUAUAUCUC, 0.42.

With UAUCGGGGGGCCACGGCAGAAGCGUUCACGUCGCAGCCCCUGUCAGAUUCUGGCGAAUCCGCGAAUUCUGCUGUAUAUCUC, the self-cleavage is 0.19. Consider UAGCAGGGGGCCACAGCAGAAGCGUUCACGUCGCAGCCCCUGUCAGAUUCUGGCGAUUCUACGUAUUCUGCUGUAUAUCUC, for which the self-cleavage was 0.25. To UAGCAGGGGGCCACAGCAGAAGCGUUCACGUCGCAGCCCCUGUCAGAUUCUGGUGAAUCUGCGAACUCUGUUGUAUAUCUC belongs 0.43; to UAGCAGGGGGCCACAGCAGAAGCGUUCACGUCGCAGCCCCUGUCAGAUCCUGGUGAAUCUGCGAAUUCUGCUGUAAAUCUC, 0.44; to UAUCGGGGGGCCGCAGCAGAAGCGUUCACGUCGCAGCCCCUGUCAGAUUCUGGUGAAUCUGCGAAUUCUGCUGCAUAUCUC, 0.34. With UAGCAGGGGGCCACAGCAGAAGCGUUCACGUCGCAGCCCCUGUCAGAUUCCGGUGAAUCUGCGAGUUCUGCUGUAUAUCUC, the self-cleavage stood at 0.85. To UAUCAGGGGGCCUCAGCAGAAGCGUUCACGUCGCAGCCCCGGUCAGAUUCUGGUGAACCUGCGAAUUCUGCUGUAUAUCUC belongs 0.15; to UAUCAGGGGGCCACCGCAGCAGCGCUCACGUCGCAGCCCCUGUCAGAUUCUGGUGAAUCCGCGAAUUCUGCUGUAUAUCUC, 0.45; to UAUCUGGGGGCCACAGCAGAAGCGUUCACGUCGCAGCCCCAGUCAGAUUCUGGCGAAUCUGCGAAUUCUGCUGUAUAUCUC, 0.14. As for UAUCAGGGGGCCACGGCAGAAGCGUACCCGUCGCAGCCCCUGUCAGAUUCUGGUGAACCUGCGAAUUCUGCUGUAUAUCUC, the self-cleavage stood at 0.31.

With UAUCAGGGGGCCUCAGCUGAAGCGCUCACGUCGCAGCCCCUGUCUGAUUCAGGUGAAUCUGCGAAUUCUGCUGUAUAUCUC, the self-cleavage was determined as 0.21. To UAGCAGGGGGCCACAGCAGAAGCGUUCACGUCGCAGCCCCUGUCAGAUUCUGGGGAACCCGCGAAUUCUGCUGUAUAUCUC belongs 0.27; to UAUCAGGGGGCCACGGCAGAAGCGUUCACGUCGCAGCCCCUGUCAGAUACUGGUGAAUCUGCGAAUUCUGCUGUAUUCCUC, 1; to UAUCAGGGGGCCACCGCAGAGGCGUUCACGCCGCAGCCCCUGUCAAAUUCUGGUGAAUCUGCGGAUUCUGCUGUAUAUCUC, 0.06. To UAUCAGGGGGCCUCAGCAGAAGCGCUCACGUCACAGCCCCUGUCAGAUUCCGGUGAAUCUGUGAAUUCUGCUGUAUCUCUC belongs 0.2; to UAUCAGGGGGCCUCAGCAGAAGCGUUCGCGUCGCGGCCCCUGUCAGAUUCAGGUGAAACUGCGAAUUCUGCUGUAUAUCUG, 0.75; to UAGCAGGGGGCCACAGCAGAAGCGUUCACGUCGCAGCCCCUGUCAGAUUCUGGAGAAUCUGCGAAUUGUGCUGUAUUUCUC, 0.72. In the case of UAGCAGGGGGCCACAGCAGAAGCGUUCACGUCGCAGCCCCUGUCAGAUUCCGGUGGAUCUGCGAAUUCUGCUGAAUAUCUC it was 1.22. On to UAGCAGGGGGCCACAGCAGAAGCGUUCACGUCGCAGCCCCUGUCAGAUUCUGGAGAAUCCGCGAAUUCUGCUGUAUAUCCC, for which the self-cleavage came to 0.84. To UAUCUGGGAGCCACAGCAGAAGCGUUCGCGUCGCAGCCCCUGUCAGAUUCUGGUGAAUCUGCGAAUUCUGCUGUAUAUCUC belongs 0.13; to UAGCAGGGGGCCACAGCAGAAGCGUUCACGUCGCAGCCCCUGUCAGAUACAGGUGAGUCUGCGAGUUCUGCUGUAUAUCUC, 0.08. To UAGCAGGGGGCCACAGCAGAAGCGUUCACGUCGCAGCCCCUGUCAGAUUCUGGUGAAUCUGCGAAUACUGCCGUAUAUCUC belongs 0.48.
